Reference: PubChem BioAssay AID686978 (National Center for Advancing Translational Sciences (NCATS), 2013)
The whole screen tested about 420,000 compounds, of which about 64,000 (15%) were called active. This list was built around the results that the source calls inconclusive (neither active nor inactive); the mix of calls is not that of the screen. Calls follow the shape of the dose curve; as a rule, active = well fitted inhibition curve with a large enough effect; inconclusive = small, poorly fitted or top-dose-only effect; inactive = flat fitted curve, though single readings scatter. Potencies of inconclusive entries are left out as doubtful fits.

test: qHTS for Inhibitors of human tyrosyl-DNA phosphodiesterase 1 (TDP1): qHTS in cells in absence of CPT; conditions: DT40 Tdp1-/- hTDP1 cells, no CPT, ATP luminescence, 48 h; activity change, negative = growth inhibition: at 46.2 µM (top of the series) unless noted; also: nearly all actives have a fitted effect of over 55% in size
Outline: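 Stably hTDP1-transfected Tdp1-null chicken DT40 cells were treated with library compounds minus camptothecin and grown for at least 48 hr at 37 °C, after which cellular ATP was quantified by luminescence.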
% is scaled to controls: 0 for no effect and ±100 for the full control effect; potency is read from the fitted curve at half-maximal effect; tags tell the direction and shape of the fitted curve.

Row | SMILES | Potency | activity change, negative = growth inhibition
1 | COc1ccccc1CNC(=O)c1cccc(N2CCCS2(=O)=O)c1 | inconclusive [inhibitor, partial curve, poor fit] | –
2 | CCc1ccc(CNc2ccc3c(c2)ncn3CC)cc1 | inconclusive [inhibitor, single point] | –
3 | COc1ccc(C(=O)Nc2ccccc2N2CCCCC2)cc1[N+](=O)[O-] | inconclusive [inhibitor, partial curve] | –
4 | O[C@H]1C[C@H](c2ccccc2)N(Cc2cccs2)C[C@@H]1n1cc(C2CC2)nn1 | active: 20.6 µM | –
5 | CC(C)C1Cc2[nH]c(=S)[nH]c(=O)c2C(c2ccc(F)cc2)O1 (stereo not given) | – | inactive: 29.8%
6 | CC1(c2ccccc2)NC(=O)N(CC(=O)Nc2ccccc2C(=O)N2CCCCC2)C1=O (stereo not given) | – | inactive: -20.1%
7 | O=c1[nH]c2cccnc2n(CCNc2ncc(C(F)(F)F)cc2Cl)c1=O | inconclusive [inhibitor, single point] | –
8 | CCOC(=O)c1[nH]c2ccc(OC)cc2c1NC(=S)N1CCN(c2ccccc2)CC1 | inconclusive [inhibitor, partial curve, poor fit] | –
9 | CCCCN(C)CCNC(=O)c1ccc(Cn2c(=O)[nH]c3cc(OC)c(OC)cc3c2=O)cc1 | inconclusive [inhibitor, single point] | –
10 | O=C(Nn1c(C2CCCCC2)nc2ccccc2c1=O)c1ccc(Cl)c([N+](=O)[O-])c1 | inconclusive [inhibitor, single point] | –
11 | Cc1nc2cc(C(=O)O)ccc2s1 | – | inactive: 6.08%
12 | C=CCn1c(SCc2ccc(C(=O)Nc3nccs3)cc2)nnc1-c1ccc(C)c(Cl)c1 | active: 23.1 µM | –
13 | Cc1ccc(N(C(=O)c2ccco2)C(C(=O)NC2CCCC2)c2cccnc2)cc1C (stereo not given) | – | inactive: -7.13%
14 | COc1ccc(Br)cc1C(=O)Nc1cccc2ccc(C)nc12 | – | inactive: -2.71%
15 | COc1cc(-c2nc(S(=O)(=O)c3ccc(Br)cc3)c(N3CCOCC3)o2)cc(OC)c1OC | active: 8.2 µM | –
16 | O=C(NC1CCCCC1)c1n[nH]c2c1CCCCC2 | inconclusive [inhibitor, single point] | –
17 | CCCCCCCC/C=C\CCCCCCCC(=O)NCCc1ccc(O)c(O)c1 | active: 2.91 µM | –
18 | O=C(c1cccs1)N1CCN(Cc2ccccc2)CC1 | – | inactive: -3.29%
19 | CCN(CC)S(=O)(=O)c1cccc(C(=O)N[C@H](C(=O)NC2=NCCS2)C(C)C)c1 | inconclusive [inhibitor, single point] | –
20 | Cc1ccc(CSC2=CS(=O)(=O)c3ccccc3N2)cc1 | inconclusive [inhibitor, partial curve] | –
